Source: paper PMC12136788
This is one part of the list.

T1: UNK ZnF1-3 (human, UniProt Q9C0B0 31-174)
T1 sequence: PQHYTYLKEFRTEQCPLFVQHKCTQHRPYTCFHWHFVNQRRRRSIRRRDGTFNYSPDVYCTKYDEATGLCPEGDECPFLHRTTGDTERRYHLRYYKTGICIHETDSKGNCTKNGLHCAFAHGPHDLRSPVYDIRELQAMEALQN

B1: 42054337_42054457_7581_CDS_ENSG00000174197_ENST00000570161|human|control|control (ssRNA)
RNA: GGGAGUUCUACAGUCCGACGAUCCUGUUUGCUAAUUCUGGGAGAUAUGUCAAACUCAUCUGAUCCCAUCUUCUUUUUUCUUUUUUGUGCCUCUAGUGCUUGCUGUUUUGCAUAAAUAUACUCUAGCUUCUUCAGGACCACUUCCAACAGAGGAUUGAGCAUCA
B2: chr4:114257803:114257804:+_ENSG00000145362_ENST00000514960|hu_hu|FALSE|FALSE (ssRNA)
RNA: GGGAGUUCUACAGUCCGACGAUCGGAAUGGUCAUGGUAAUUGGUUUGUGGAAUUUUCUUCUUCUAGGUUCCAAAGUGACUAUAGGGCUGAAGGUAGCUUUGUUGCCUAGGAUCUUCUUAACCAGCUCACUGUGCAUAGGUUGACAACAGAGGAUUGAGCAUCA
B3: 29884779_29884899_2625_CDS_ENSMUSG00000074909_ENSMUST00000099525|mouse|control|control (ssRNA)
RNA: GGGAGUUCUACAGUCCGACGAUCUGGCCAUGGCCUACUUGAACAAAUUAGAUUUACAAUUAGUGGGAGUAGCUGCUCAAACCAUGGCAAAAUUUUUUCCUUGUAAGUACUAAAUAAUGAGUGCAAAAUAUCUGAUACUUUGGUCAACAGAGGAUUGAGCAUCA
B4: 22825274_22838584_225_3pUTR_ENSMUSG00000036782_ENSMUST00000035973|mouse|control|control (ssRNA)
RNA: GGGAGUUCUACAGUCCGACGAUCCAUCAUGACUCUGUGCACAGGGUAAGCAUCAUCUGUAUCACCUGGCAUCAGUGUCACAUCACAAAGCAAUCCAUCAAGCCGAAGCUGGUCAAAGCCCUGUAACACCACAGAACUGUGGCUCAACAGAGGAUUGAGCAUCA
B5: 86280069_86281328_2581_CDS_ENSG00000068654_ENST00000263857|human|control|control (ssRNA)
RNA: GGGAGUUCUACAGUCCGACGAUCAUAGUGCGCCUUGUCCAGCACUCCGCAGAGCAGCUCCCCUUCCCUGAUGAUCACCUGGGACUCGCACAUCGAGUCAGGGUUAAAGCCAGGAACGGAUCGAGGAGUUUCCUUCACCCAGGCCAACAGAGGAUUGAGCAUCA
B6: chr12:105536279:105536280:+_ENSG00000136051_ENST00000332180|hu_mus|hu_hu_hu_mus_True|1_8 (ssRNA)
RNA: GGGAGUUCUACAGUCCGACGAUCAGCACUGAACAUGUAAUGUAAUCUGGCUGCAUCGACAGCAUUUUCAUAUACAUCAUCUAAAUAAAUCGGGAAGACAGCGCGAUGCCAGUAUAAAAAACAGCAGUCACAUUGUGUUUGGACCAACAGAGGAUUGAGCAUCA
B7: chrX:140365796:140365797:-_ENSMUSG00000031285_ENSMUST00000033642|mus_mus|mus_mus_mus_hu_False|1_38 (ssRNA)
RNA: GGGAGUUCUACAGUCCGACGAUCCUUCUCAUUACUCAGUGCCUGCAAGGUUCUGGUUCGGUAGAAGCUACAGUGGGCGCUGUGAGUGGGGCUAGGCAGUCCAUUCAUCCGGGAGCCUCGCAUGUUCCUGGAUGUCUUGUCUCGCAACAGAGGAUUGAGCAUCA
B8: chr1:24083500:24083501:+_ENSG00000011007_ENST00000418390|hu_hu|FALSE|FALSE (ssRNA)
RNA: GGGAGUUCUACAGUCCGACGAUCACUGCUGGUGCUUGGGCCAUCAUAGGCCGGCUCCUCAGGGCUGGGGUUAAAGCUGAUGCUACUGGCGGAAGCAUGGCUGCUUCCCAUGGGGUACGGGGCUGGCUUGAUCUUGAUUUUCUCCAACAGAGGAUUGAGCAUCA
B9: chr6:30692278:30692279:+_ENSG00000196230_ENST00000327892|hu_hu|motif|central (ssRNA)
RNA: GGGAGUUCUACAGUCCGACGAUCCCAGAGUGGAAAGAGAGAGGAGACAUUCAACAAACAAGUAUUUAUUGAGCGCCGGCGGUGUGCCAGGCACUGUUCUAGACCCCCCCCAGAAGAAAAAACAAAAAACAAGAUAGAGGCAGCCAACAGAGGAUUGAGCAUCA
B10: chr12:74934348:74934349:+_ENSG00000253719_ENST00000519948|hu_mus|FALSE|FALSE (ssRNA)
RNA: GGGAGUUCUACAGUCCGACGAUCUUUUUUAGCUCCUGCCAAGGUUUUACUCACGUUCUCAAAAUUCUUGGACUAAGGAUCCAAACUGUAACUAGGCCCCAACCCUGAGCUGCAAAACUCUGAGAAGGCAACAACAGACAGUCUCAACAGAGGAUUGAGCAUCA
B11: chr8:59494266:59494267:+_ENSG00000137575_ENST00000447182|hu_mus|FALSE|FALSE (ssRNA)
RNA: GGGAGUUCUACAGUCCGACGAUCAGCCGUGAUGCAUUGUACAAGGGUUUAAACUUCAGGAAUGGUGUGAUCCAUCAGGCUUUUCAUAAUGCUGGGAGCCAUCCGUUUAAUAAUGUGUUCGAAGAUAAAAGUAGGCAUGAUUGUCAACAGAGGAUUGAGCAUCA
B12: 31789926_31820491_1316_CDS_ENSMUSG00000020300_ENSMUST00000109412|mouse|control|control (ssRNA)
RNA: GGGAGUUCUACAGUCCGACGAUCUGACCCCAGACCACUAUGAAGAGGUUGAUCCCCACGGCCAUCAUCCAGGAAUCCAUCUUCCAUCGGAAACAAUGAAGACUGACCUCUCCUUCGCCCAUAAGUCCUUGCUUUAAUGGAAUCCAACAGAGGAUUGAGCAUCA
B13: chr3:100366718:100366719:-_ENSMUSG00000008763_ENSMUST00000008907|mus_mus|FALSE|FALSE (ssRNA)
RNA: GGGAGUUCUACAGUCCGACGAUCGACAAACAUCACAGGAAGCUUACUGCCCAUCAGGCUUGGCACACCACAACAUAGAUGCUAGCAAGAUGAUACCACAGACUUGUACCUUUCGUGAGUCCUGCAGUUGCUGAUUGACUGUUACAACAGAGGAUUGAGCAUCA
B14: chr1:225611761:225611762:-_ENSG00000143815_ENST00000272163|hu_mus|hu_hu_hu_mus_True|48_78 (ssRNA)
RNA: GGGAGUUCUACAGUCCGACGAUCCCAGGCCAUCGGCCUCUGACCACUUCACCCUCAGCAAAUUUCCUACUUGGCAUUUUCUAAAAUUAACCUGCGCGCGCUCCGGCGGGAACUCCAGCCACUCCAGGACAGUCACCAGCAGCCCAACAGAGGAUUGAGCAUCA
B15: 17629441_17629561_2928_CDS_ENSG00000124789_ENST00000262077|human|control|control (ssRNA)
RNA: GGGAGUUCUACAGUCCGACGAUCAGUUAAAGAAACUGGGUUGCUUAAACCAGAAGAAAGUCCAAACUUAAAAUUAUCAUUCUUACUAUCUUUUUUAACUUCUUCGGGCUUAGAUUCAGAUGAAACUCCAAAUUUAAAAUCUCCCAACAGAGGAUUGAGCAUCA
B16: chr8:17156679:17156680:-_ENSG00000003987_ENST00000180173|hu_hu|motif|central (ssRNA)
RNA: GGGAGUUCUACAGUCCGACGAUCAUACUUAAAUUCAUAUGUAAGACCAGGAGAAUGAAUGUUGCUUCUACCUCGUUAGCGGUUAAAUCAGUGUUAGAGAAAAAGUGAGAUACAAGGUUUAGCAUUUUUAAAUAAUGAGGAGAACAACAGAGGAUUGAGCAUCA
B17: chr17:57752078:57752079:+_ENSG00000141367_ENST00000269122|hu_mus|FALSE|FALSE (ssRNA)
RNA: GGGAGUUCUACAGUCCGACGAUCAAUCAAAUUUUUAAUGACAUCUUCAGAGCAGUCAACAUCCAGCAAUCCUCCAAUAACCACAGGAAGUCGACUUGGAUUUACCUUCUGGACAUAUAUCUCUAUAUACUUCUGAAGAUUGUUCAACAGAGGAUUGAGCAUCA
B18: chr7:35913284:35913285:+_ENSG00000122545_ENST00000399035|perfect_dup|motif|central (ssRNA)
RNA: GGGAGUUCUACAGUCCGACGAUCAUCAGGCAUCUGACGUCUGUUCACUCGAGAUUCUGCAUUUAAGUAAUCUUCAAAUUUACGGUCAAUGUAGUCGAUAACAGGCUGCCAGCAAUUACUAUUAUCCACUGCAUCUCCAAAUCCCAACAGAGGAUUGAGCAUCA
B19: chr22:19452774:19452775:-_ENSG00000070010_ENST00000399523|hu_hu|hu_hu_hu_mus_False|18_38 (ssRNA)
RNA: GGGAGUUCUACAGUCCGACGAUCCUUCUCAUUGUAGUUGAUAGCAAUCACAUCUCCAGUCGUCAGACAGGCGAAGUUUCUCAAUGCAUUUUCUAAUACGGCUUUGGGGUUGGUAAUGUCCAGGAAGUCUGGGCUCUGAGGCUGCAACAGAGGAUUGAGCAUCA
B20: chrX:71549762:71549763:+_ENSMUSG00000019087_ENSMUST00000019231|mus_mus|mus_mus_mus_hu_False|18_108 (ssRNA)
RNA: GGGAGUUCUACAGUCCGACGAUCAAAGUGUACCACUUCUUAUUGUUAGCACAACAUCACCAGAAAACGAUAACGACAGCCAAGCAGGACAGACAGUUAAGUAGUACUUCCACACUCCGCAAAUUCAGGAGCCCUAUAACCUUACAACAGAGGAUUGAGCAUCA
B21: chr4:25749455:25749456:-_ENSG00000091490_ENST00000264868|hu_hu|hu_hu_hu_mus_False|28_48 (ssRNA)
RNA: GGGAGUUCUACAGUCCGACGAUCGCACUAUGACCUCUAGAAAAAUCCACAGGGGGAAAAAAUGUAAACCAAUGUACAAUGUUAUCGCCCUCCCUGCGUGUGGAGUGACAAACAAUUGGCUCCUUCUAGCUGCUGGAUUUGGGACAACAGAGGAUUGAGCAUCA
B22: chr3:131220538:131220539:-_ENSG00000114686_ENST00000264995|hu_hu|motif|central (ssRNA)
RNA: GGGAGUUCUACAGUCCGACGAUCUUCUUCAGAAAGAUGCUCAUCCCACCAUGUACCACUCUUUCCAUGAAGACCUCGGACAAAAAGCCAGAUGUGUGUUCUGUUCCCCGGGCCCAGGGCAGCACCCAGGCCGUCCCCGAGUCGCAACAGAGGAUUGAGCAUCA

target: T1, UNK ZnF1-3; experiment: nsRBNS (natural sequence RNA bind-n-seq); RBNS binding buffer (assumed for nsRBNS): 25 mM Tris pH 7.5, 150 mM KCl, 3 mM MgCl2, 0.01% Triton X-100, 500 ug/ml BSA, 20 U/ml SUPERase-In, 4 C; UNK is unkempt and MSI1 is Musashi-1; names of the RNAs are library labels; protein concentration not given here; high values mean tight binding

| Binder | binding signal |
| --- | --- |
| B1 | 0.45 enrichment R |
| B2 | 0.595 enrichment R |
| B3 | 1.51 enrichment R |
| B4 | 1.12 enrichment R |
| B5 | 0.856 enrichment R |
| B6 | 2.71 enrichment R |
| B7 | 0.5 enrichment R |
| B8 | 0.629 enrichment R |
| B9 | 2.25 enrichment R |
| B10 | 1.37 enrichment R |
| B11 | 2.12 enrichment R |
| B12 | 0.887 enrichment R |
| B13 | 1.22 enrichment R |
| B14 | 1.52 enrichment R |
| B15 | 1.43 enrichment R |
| B16 | 1.34 enrichment R |
| B17 | 0.639 enrichment R |
| B18 | 1.1 enrichment R |
| B19 | 0.73 enrichment R |
| B20 | 1.52 enrichment R |
| B21 | 1.06 enrichment R |
| B22 | 1.34 enrichment R |
